Reference: ChEMBL document CHEMBL4888484, “Replenishing the malaria drug discovery pipeline: Screening and hit evaluation of the MMV Hit Generation Library 1 (HGL1) against asexual blood stage Plasmodium falciparum ,using a nano luciferase reporter read-out” (2022)
Out of some 150,000 compounds screened, about 540 (0.36%) showed an effect of 50% or more. Some of the results follow.

System: Plasmodium falciparum
Experiment: Primary screen in NF54 nanoGlo assay, in single point, at 2uM, 72h; a lower Z score goes with more inhibition
Type: functional, Erythrocyte
Settings: timepoint 72 hour

| Structure (SMILES) | % Inhibition [%] | Z score |
| --- | --- | --- |
| Fc1ccc(N2CCN(Cc3cccn3-c3nnc(N4CCN(Cc5ccccc5)CC4)s3)CC2)cc1 | 0 | 0.04 |
| Cc1nc(CC(=O)Nc2cnn(Cc3nnc4n3CCCC4)c2)cs1 | -10 | 2.05 |
| N#Cc1cncc(S(=O)(=O)N2CCc3cnccc32)c1 | -8 | 1.41 |
| CCN(CCn1cccn1)Cc1ccc2c(c1)CCO2 | 2 | -0.29 |
| CCN(C(=O)c1cc(C#N)c[nH]1)[C@@H](C)Cc1ccc(OC)cc1 | -15 | 1.62 |
| C[C@H](NC(=O)Cn1cc(-c2nnco2)c2ccccc21)c1ccccc1 | 6 | -0.66 |
| O=C(c1cnccn1)N1CC[C@H](OCc2ccccc2)C1 | -8 | 1.44 |
| CCCn1c(=O)c2ccccc2n(CC(=O)NCc2ccco2)c1=O | 11 | -1.6 |
| Cn1cc(COc2ccc(O)cc2)cn1 | 3 | -0.57 |
| Cc1cnc(C(C)NC(=O)N[C@@H]2C=C[C@H](CO)C2)s1 (some centres not stated) | -11 | 1.08 |
| O=C1CCCN1CN(C(=O)c1ccc(-c2ccccc2)cc1)c1nccs1 | 12 | -2.05 |
| COc1ccc(NC(=O)N(C)Cc2c(C)noc2C)cn1 | 8 | -1.37 |
| Cc1c(CNC(=O)CCC(C)(C)N2CCOCC2)cnn1C | -2 | 0.28 |
| CCCOCC(=O)N1CCN(c2nncc3ccccc23)CC1 | -11 | 1.15 |
| O=C(CC1CCC2(CC1)OCCO2)N(c1ccccn1)C1CCCC1 | -4 | 0.44 |
| C[C@]1(F)CCN(c2ccc(C#N)nc2)C1 | -6 | 0.64 |
| O=S(=O)(NC[C@@H]1CCCC[C@@H]1N1CCOCC1)c1ccoc1 | 9 | -1.52 |
| O=C(Nc1ccc(F)cc1)N1CCN(c2ccc(-c3noc(C4CCCCC4)n3)cc2)CC1 | -16 | 3.22 |
| C[C@H]1CCOCCN1C(=O)Cc1ccc2[nH]ncc2c1 | -8 | 1.23 |
| CCc1cc(C(=O)N2CCC3(CCCCC3)C2)[nH]n1 | -3 | 0.32 |
| CC1(C)CN(C(=O)c2cscn2)C[C@]1(O)C1CC1 | -1 | 0.18 |
| CN1CCCC(CNC(=O)c2cscn2)C1c1cccs1 (configuration not stated) | -10 | 1.16 |

| Structure (SMILES) | % Inhibition [%] | Z score |
| --- | --- | --- |
| CCN1CCN(C(=O)c2cc3n(n2)CCN(Cc2ccc(Cl)cc2)C3=O)CC1 | -7 | 1.2 |
| COc1ccc(NC(=O)C2=NN(CC(=O)Nc3ccc(C)cc3)C(=O)CC2)cc1 | -5 | 0.8 |
| CCc1nc(CN(C)C(=O)c2ccc(-c3cnc(OC)cc3C)cc2)no1 | 0 | 0 |
| CCc1sc(C(C)NC(C)CS(C)(=O)=O)cc1C (configuration not stated) | -6 | 0.91 |
| Cc1ccc(F)c(CN(C)C(=O)Cc2cscn2)c1 | -9 | 1.16 |
| CN(Cc1ccccc1-c1ccccc1)C(=O)CCn1ccccc1=O | 7 | -0.94 |
| O=S1(=O)CCN(c2ccc3cccc(Br)c3n2)CC1 | 16 | -1.88 |
| Cc1oc(-c2ccc3ccccc3c2)nc1CN(CCO)[C@H]1CCS(=O)(=O)C1 | -11 | 1.37 |
| COc1ccc2cc(C(=O)N(C)Cc3nc4ccccc4c(=O)[nH]3)n(C)c2c1 | -12 | 2 |
| CCC(NC[C@H](C)O)c1cccc(Cl)c1F (some centres not stated) | 0 | 0.03 |
| CC(C)C(=O)N1CCN(c2ccc3nc[nH]c(=O)c3n2)CC1 | -6 | 1.35 |
| O=C1CCC[C@@H](C(=O)NCCc2nc(-c3ccc(Cl)cc3)n[nH]2)N1 | -16 | 1.93 |
| CN(C)c1cc(N2CCn3nc(CNC(=O)C4CCC4)cc3C2)nc(N)n1 | -9 | 1.02 |
| O=C(NCc1ccc(N2CCC(O)CC2)c(F)c1)C1CC2CCCCC2N1 (configuration not stated) | 1 | -0.12 |
| Cc1oc(-c2ccc(Cl)cc2)nc1C(=O)NC[C@H](C)c1nc2ccccc2n1C(F)F | 2 | -0.26 |
| CCNc1cc(NCCNS(=O)(=O)c2ccc3ccccc3c2)nc(C)n1 | 12 | -1.56 |
| CC1CCC(N2C[C@@H](C(=O)NS(=O)(=O)CC3CCC3)CC2=O)CC1 (some centres not stated) | -4 | 0.7 |
| O[C@H]1CCCN(Cc2ccccc2OCc2c(F)cccc2Cl)CC1 | -23 | 2.21 |
| CC(=O)N1CCCN(Cc2ccnc(NC(=O)OC(C)(C)C)c2)CC1 | -6 | 1.1 |
| COCCn1cnc2cc(NC(=O)C3CCCCC3)cc(C(=O)N3CCNC(=O)C3)c21 | 3 | -0.55 |
| CC(C)(C)NC(=O)Nc1ccc(Cl)cc1F | 1 | -0.22 |
| CC(C)(CCS(C)(=O)=O)NC(=O)Nc1ccc(Cl)c(F)c1 | 2 | -0.26 |

| Structure (SMILES) | % Inhibition [%] | Z score |
| --- | --- | --- |
| Cc1oc(C(C)C)cc1C(=O)NC[C@H]1CCCN(S(C)(=O)=O)C1 | -10 | 1.15 |
| CN(CC(=O)N1CCN(S(=O)(=O)c2cccc(F)c2)CC1)C1CCCCCC1 | -16 | 2.65 |
| OC1(CCCNC2CCN(C3CC3)C(c3ccccc3)C2)CCC1 (configuration not stated) | -8 | 1.49 |
| Cc1ccc(-n2nc(C)c3nc(CCC(=O)NCc4ccc5c(c4)OCO5)c(=O)n(C)c32)cc1 | -5 | 0.66 |
| C[C@@](CO)(NCC(=O)NCC1CCC1)C1CCCCC1 | -9 | 1.12 |
| NC(=O)C1CCN(C(=O)CNc2ccc3ccccc3c2)CC1 | 1 | -0.17 |
| CCOc1ccc(NC(=O)N2C[C@@H]3CCCN3c3ccccc32)cc1 | -8 | 1.04 |
| COCCNC(=O)NC(=O)COc1ccc(Cl)cc1Br | -11 | 1.42 |
| COc1ccc(CNC(=O)N2CCCCCNC(=O)[C@@H]3CCCC[C@@H]32)cc1 | -8 | 1.06 |
| Cc1nc(CN2C[C@@H]3CC[C@H]2CN(C(=O)c2cnccn2)C3)c2ccccn12 | -10 | 1.63 |
| COc1ccc2c(c1)N1CCN(c3cnccn3)CC1C(C(=O)NCC1CC1)C2 (configuration not stated) | 11 | -1.23 |
| CC(C)C(=O)N1CCN(c2ccc(NC(=O)c3ccc4c(c3)OCCO4)cc2Cl)CC1 | 2 | -0.34 |
| COc1cc(OC)cc(C(O)CNC(C)C2(C)CCCO2)c1 (configuration not stated) | -19 | 3.36 |
| Cc1ncsc1CN1CCC(n2c(C)nn(C)c2=O)CC1 | 7 | -1.01 |
| N#CC1C(c2cccs2)C(C(N)=O)C(=O)NC1(O)c1ccccc1 (configuration not stated) | -4 | 0.43 |
| COc1ccc(N(C(=O)c2ccccc2F)C2(C(=O)Nc3c(C)cccc3C)CCCC2)cc1 | 4 | -0.56 |
| CC(=O)N1CCN(C(=O)C2CC3CCCC(C2)C3=O)CC1 (configuration not stated) | 5 | -0.43 |
| CNC(=O)c1nnsc1N1CCN(Cc2ccccc2)CC1 | -36 | 4.21 |
| O=C(Nc1ccc2nccn2c1)N1Cc2cccnc2N2CCC[C@@H]2C1 | -3 | 0.58 |
| CCN(CC(=O)Nc1ccc2c(c1)OCCO2)C(=O)CCc1c(C)noc1Cl | 21 | -2.61 |
| CCCN(C)C(=O)c1cc2cn(C(C)C)cc2s1 | -12 | 2.38 |
| Cc1nnc(CN2CCO[C@H](c3ccc(S(C)(=O)=O)cc3)C2)s1 | -14 | 1.78 |

| Structure (SMILES) | % Inhibition [%] | Z score |
| --- | --- | --- |
| Cc1ccc(C)c([C@@H](NC(=O)c2cc(C)nc(N)n2)c2cccnc2)c1 | -2 | 0.39 |
| O=C(NC1CC2CCC1O2)c1cc(Cl)cc(F)c1Br (configuration not stated) | -2 | 0.44 |
| COc1cccc(-c2nc3ccc(C(=O)NCCN4CCCC[C@@H]4CO)cc3o2)c1 | -6 | 0.95 |
| Cc1nc(C(C)C)sc1CNC(=O)c1cnc(O)cn1 | -6 | 0.88 |
| O=C(NCCc1cccs1)c1ccc2ccccc2n1 | -8 | 1.09 |
| CCCc1nc(C)cc(N2CCC3(CC2)CNC(=O)O3)n1 | -7 | 1.4 |
| O=C(CC1(O)CCCC1)NCc1cccc(C(F)(F)F)n1 | 3 | -0.35 |
| COC[C@H](C)NC(=O)CS(=O)(=O)c1ccc(F)cc1F | 0 | 0.03 |
| CN(C)c1ccccc1NC(=O)NC(C)(C)C(=O)NCC(C)(C)C | -16 | 2.01 |
| CCN1CCCC[C@@H]1CNc1cnc(C(=O)OC)cn1 | -3 | 0.47 |
| CC(C)(C)NC(=O)N1CC[C@@]2(CCCNC2=O)C1 | 2 | -0.23 |
| Cc1ccc(CN(C)c2ccnc(C(F)(F)F)n2)o1 | 9 | -1.31 |
| c1ccc(-n2nnnc2CN2CCCC2)cc1 | -25 | 2.51 |
| CN(c1cccc(NC(=O)c2ccc(N(Cc3ccc(Cl)cc3)S(C)(=O)=O)cc2)c1)S(C)(=O)=O | -14 | 1.74 |
| O=C([C@H]1CC(=O)N(c2cccc(O)c2)C1)N1CCc2[nH]cnc2C1 | -16 | 2.98 |
| CN(Cc1ccc(Br)c(F)c1)C(=O)C(C)(C)O | -2 | 0.31 |
| CCN1C[C@H](Nc2ncnc3sc(C)cc23)[C@@H](OC)C1 | -9 | 1.14 |
| O=C(NCC1CCCCC1)c1nnc(N2CCCCC2)c2ccccc12 | -11 | 1.36 |
| COc1cccc([C@H]2C[C@@H](C(F)(F)F)n3ncc(C(=O)Nc4cc(OC)c(Cl)cc4OC)c3N2)c1 | -20 | 2.69 |
| CS(=O)(=O)N1CCC(C(=O)N(CC(F)(F)F)C2CCOCC2)CC1 | 4 | -0.5 |
